{
  "source": "paper PMC12422735",
  "about": "(eLife, 2025)",
  "target": "the molecule itself",
  "test": "SEC",
  "data": [
    {"protein": "N-terminally Myc-tagged Δ40p53α, expressed in H1299 cells (natural protein, not shown: Myc, N-terminal, kept) not shown", "values": [
      {"measurement": "stoichiometry N", "result": 4}
    ]}
  ]
}
